153 variants from a collection of fitness landscapes (doi:10.1016/j.celrep.2020.107928) can be followed below.

B1: Caulobacter ParB omega fusion; a variant is named by its letters at X, in order, B8GW30 (parent)
chain: MESVVVGEPGMSEGRRGLGRGLSALLGEVDAAPAQAPGEQLGGSREAPIEILQRNPDQPRRTFREEDLEDLSNSIREKGVLQPILVRPSPDTAGEYQIVAGERAWRAAQRAGLKTVPIMVRELDDLAVLEIGIIENVQRADLNVLEEALSYKVLMEKFERTQENIAQTIGKSXSHVANXMRLLXLPDEVQSYLVSGELTAXHARAIAAAADPVALAKQIIEGGLSVRETEALARKAPNLSAGKSKGGRPPRVKDTDTQALESDLSSVLGLDVSIDHRGSTGTLTITYATLEQLDDLCNRLTRGI

The full ranking holds about 81,000 sequences; the median of “one-hybrid fitness for binding parS DNA” is about -0.17, and the highest 2% start at about 0.51. The list shows a part of the results.

The test covers variants of B1. Description: one-hybrid fitness for binding parS DNA (scaled: cognate 1, non-cognate 0); higher = stronger binding. As to conditions: with parS DNA site. The method in brief: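 On M9-minus-histidine containing 0.1 mM IPTG and 5 mM 3-AT, E. coli USO cells with a HIS3 reporter, site 19 bp from the promoter, grew 48 hours at 37°C to select Caulobacter ParB libraries randomised at four specificity codons. Plasmids from before and after were Illumina-sequenced, with three replicate libraries pooled and variants under 10 reads left out. Fitness is the log change in variant-to-wild-type read ratio, rescaled against cognate and non-cognate.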
With PVFR, the “one-hybrid fitness for binding parS DNA” value was at most 0.2. As for QKGH, the “one-hybrid fitness for binding parS DNA” value is at most 0.2. Next, DACA: at most 0.2.

For YRTG, the “one-hybrid fitness for binding parS DNA” value was at most 0.2. Regarding PCKN, the “one-hybrid fitness for binding parS DNA” value is at most 0.2.

Take WWNS: the “one-hybrid fitness for binding parS DNA” value is at most 0.2. In the case of AVNY, the “one-hybrid fitness for binding parS DNA” value was at most 0.2. Next, GWTT: at most 0.2; VSDR: at most 0.2. Consider TGSY, for which the “one-hybrid fitness for binding parS DNA” value was at most 0.2. As to LATG, the “one-hybrid fitness for binding parS DNA” value was at most 0.2. Then EPKC, with at most 0.2.

On to INTP, for which the “one-hybrid fitness for binding parS DNA” value was at most 0.2. Then HLRI, with at most 0.2; and GMPP, with at most 0.2; and YRCY, with at most 0.2. As for FHAT, the “one-hybrid fitness for binding parS DNA” value was at most 0.2. Take PLIV: the “one-hybrid fitness for binding parS DNA” value was at most 0.2.

As for MHYG, the “one-hybrid fitness for binding parS DNA” value is at most 0.2. Then PEVC, with at most 0.2; and QKFH, with at most 0.2; and RTHQ, with at most 0.2. On to HFTS, for which the “one-hybrid fitness for binding parS DNA” value was at most 0.2. Next, DRLR: at most 0.2; LPYG: at most 0.2. Next, NIHG: at most 0.2; RMSF: 0.258. For ARTY, the “one-hybrid fitness for binding parS DNA” value is at most 0.2.

Turning to PPNW, the “one-hybrid fitness for binding parS DNA” value was at most 0.2. ADCE: the “one-hybrid fitness for binding parS DNA” value is at most 0.2. On to LVAC, for which the “one-hybrid fitness for binding parS DNA” value is at most 0.2. Then LNDV, with at most 0.2; and FTNL, with at most 0.2. On to CEPG, for which the “one-hybrid fitness for binding parS DNA” value was at most 0.2.

Turning to TDAC, the “one-hybrid fitness for binding parS DNA” value is at most 0.2. Then LVSN, with at most 0.2. For the variant SWES, the “one-hybrid fitness for binding parS DNA” value is at most 0.2. Then SGNR, with at most 0.2; and NYSI, with at most 0.2.

On to FVRS, for which the “one-hybrid fitness for binding parS DNA” value was at most 0.2.

For the variant SEYS, the “one-hybrid fitness for binding parS DNA” value was at most 0.2. For QYHA, the “one-hybrid fitness for binding parS DNA” value is at most 0.2. Then RPFL, with at most 0.2; and AKIF, with at most 0.2.

Take CNRY: the “one-hybrid fitness for binding parS DNA” value was at most 0.2.

Take RFWS: the “one-hybrid fitness for binding parS DNA” value was 0.836. Then PAAQ, with at most 0.2. Next, AIEW: at most 0.2; KTYG: at most 0.2; VRWR: at most 0.2. On to RMAI, for which the “one-hybrid fitness for binding parS DNA” value was 0.203.

Take ATFP: the “one-hybrid fitness for binding parS DNA” value is at most 0.2.

Turning to ASTL, the “one-hybrid fitness for binding parS DNA” value was at most 0.2.

Take QTYL: the “one-hybrid fitness for binding parS DNA” value was at most 0.2. Take GNVV: the “one-hybrid fitness for binding parS DNA” value is at most 0.2. With GDYR, the “one-hybrid fitness for binding parS DNA” value is at most 0.2. Next, PKAW: at most 0.2; RSSY: 0.46.

For the variant PDHR, the “one-hybrid fitness for binding parS DNA” value was at most 0.2. With AMRG, the “one-hybrid fitness for binding parS DNA” value was at most 0.2. As to RLNN, the “one-hybrid fitness for binding parS DNA” value was determined as 0.455.

HDFC: the “one-hybrid fitness for binding parS DNA” value is at most 0.2. Next, RGFP: at most 0.2; AKSQ: at most 0.2; SWTN: at most 0.2. Turning to SKNG, the “one-hybrid fitness for binding parS DNA” value is at most 0.2. On to HTAD, for which the “one-hybrid fitness for binding parS DNA” value is at most 0.2.

For the variant YIRY, the “one-hybrid fitness for binding parS DNA” value was at most 0.2. Next, WGHH: at most 0.2. Then RCAV, with at most 0.2; and TLCG, with at most 0.2. Next, AVNL: at most 0.2; HRLW: at most 0.2; GHKR: at most 0.2.

In the case of FPNG, the “one-hybrid fitness for binding parS DNA” value is at most 0.2. Consider NSCH, for which the “one-hybrid fitness for binding parS DNA” value is at most 0.2. Then YRWN, with at most 0.2; and KTPC, with at most 0.2; and MHDG, with at most 0.2. Next, LQSY: at most 0.2.

In the case of KVRG, the “one-hybrid fitness for binding parS DNA” value is at most 0.2.

Turning to MEHS, the “one-hybrid fitness for binding parS DNA” value is at most 0.2.

Take ATNM: the “one-hybrid fitness for binding parS DNA” value is at most 0.2. For AVIY, the “one-hybrid fitness for binding parS DNA” value was at most 0.2. As for RHNL, the “one-hybrid fitness for binding parS DNA” value was at most 0.2. Next, RWGL: at most 0.2. Then AYCC, with at most 0.2; and RAMA, with 0.565.

For the variant HTEC, the “one-hybrid fitness for binding parS DNA” value is at most 0.2.

PHTL: the “one-hybrid fitness for binding parS DNA” value is at most 0.2. Then ALQH, with at most 0.2; and FKSN, with at most 0.2; and RLAN, with 0.442. As for QPHD, the “one-hybrid fitness for binding parS DNA” value is at most 0.2. Next, ETKQ: at most 0.2. In the case of NKWG, the “one-hybrid fitness for binding parS DNA” value was at most 0.2. Then YMGR, with at most 0.2; and QNLW, with at most 0.2; and IETK, with at most 0.2. Then KEWR, with at most 0.2. Take KDHS: the “one-hybrid fitness for binding parS DNA” value is at most 0.2. Next, AMIS: at most 0.2.

Consider DITW, for which the “one-hybrid fitness for binding parS DNA” value was at most 0.2.

HRKR: the “one-hybrid fitness for binding parS DNA” value is at most 0.2. Turning to QSEP, the “one-hybrid fitness for binding parS DNA” value was at most 0.2.

In the case of LYTT, the “one-hybrid fitness for binding parS DNA” value is at most 0.2. Turning to LWWE, the “one-hybrid fitness for binding parS DNA” value was at most 0.2. Then PPKK, with at most 0.2; and ERHG, with at most 0.2; and LGKF, with at most 0.2. As for CMVC, the “one-hybrid fitness for binding parS DNA” value is at most 0.2.

On to MLHE, for which the “one-hybrid fitness for binding parS DNA” value was at most 0.2. Then RDVM, with at most 0.2; and MEST, with at most 0.2; and HLPC, with at most 0.2. Next, VTNY: at most 0.2; IKNR: at most 0.2; RHNR: at most 0.2. Next, TTAM: at most 0.2; ISVC: at most 0.2. With PDLH, the “one-hybrid fitness for binding parS DNA” value was at most 0.2. In the case of PHSW, the “one-hybrid fitness for binding parS DNA” value is at most 0.2. With HSPI, the “one-hybrid fitness for binding parS DNA” value is at most 0.2. For LKVE, the “one-hybrid fitness for binding parS DNA” value is at most 0.2. On to MATW, for which the “one-hybrid fitness for binding parS DNA” value was at most 0.2. Regarding AKNV, the “one-hybrid fitness for binding parS DNA” value was at most 0.2.

Regarding HTYP, the “one-hybrid fitness for binding parS DNA” value was at most 0.2. Then SNVR, with at most 0.2; and SRPY, with at most 0.2. Turning to RYLR, the “one-hybrid fitness for binding parS DNA” value was at most 0.2. With RLCL, the “one-hybrid fitness for binding parS DNA” value is at most 0.2. Then TFSC, with at most 0.2; and PWKA, with at most 0.2; and IEPM, with at most 0.2. Then RFQD, with at most 0.2; and AVWC, with at most 0.2. Next, LIST: at most 0.2; WMIP: at most 0.2; HNSG: at most 0.2. MYNK: the “one-hybrid fitness for binding parS DNA” value was at most 0.2. Next, ALFS: at most 0.2; QKCS: at most 0.2. For the variant YRMC, the “one-hybrid fitness for binding parS DNA” value is at most 0.2. Then RNQP, with at most 0.2; and MLSS, with at most 0.2; and QAQM, with at most 0.2. WMHS: the “one-hybrid fitness for binding parS DNA” value is at most 0.2. Next, QFHT: at most 0.2; RGTH: at most 0.2; PAPL: at most 0.2.

For HAYT, the “one-hybrid fitness for binding parS DNA” value is at most 0.2. As to PYWG, the “one-hybrid fitness for binding parS DNA” value was at most 0.2. Then QLQN, with at most 0.2.
